Results from patent US20230303698A1 (published 2023).

T1: human OX40 (human, UniProt P43489 29-277)
T1 chain: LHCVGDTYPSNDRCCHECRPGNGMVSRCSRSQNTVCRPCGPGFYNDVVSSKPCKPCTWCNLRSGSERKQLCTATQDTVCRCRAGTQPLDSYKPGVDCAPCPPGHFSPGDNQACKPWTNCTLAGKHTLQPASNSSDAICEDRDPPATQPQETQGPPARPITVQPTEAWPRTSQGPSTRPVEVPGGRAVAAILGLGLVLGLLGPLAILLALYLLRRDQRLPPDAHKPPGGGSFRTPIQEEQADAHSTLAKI

B1: PR007167 (bispecific antibody)
chain 1: QVQLVESGGGVVQPGRSLRLSCAASGFTFRSFGMHWVRQAPGKGLEWVAVISYDASNEYYADSVKGRFIISRDNSKDTLYLQMNSLRAGDTAVYYCAKGGGLRWYFAYWGQGTLVTVSSASTKGPSVFPLAPSSKSTSGGTAALGCLVKDYFPEPVTVSWNSGALTSGVHTFPAVLQSSGLYSLSSVVTVPSSSLGTQTYICNVNHKPSNTKVDKKVEPKSC
chain 2: EIVMTQSPATLSVSPGERATLSCRASQSISSNLGWYQQKPGQAPRLLIYGASTRATGIPARFSGSGSGTEFTLTISSLQSEDFAVYYCQQYQSWPPLTFGGGTKVEIKRTVAAPSVFIFPPSDEQLKSGTASVVCLLNNFYPREAKVQWKVDNALQSGNSQESVTEQDSKDSTYSLSSTLTLSKADYEKHKVYACEVTHQGLSSPVTKSFNRGECEVQLLESGGGLVQPGGSLRLSCAASGFTFSSYAMSWVRQAPGKGLEWVSAISGRGGSTFYADSVRGRFTISRDNSKNTLYLQMNSLRAEDTAMYYCVDGTTGTTDVDYWGQGTLVTVSS[letters of human IgG1 Fc with changes not shown]
B2: PR007166 (bispecific antibody)
light: EIVMTQSPATLSVSPGERATLSCRASQSISSNLGWYQQKPGQAPRLLIYGASTRATGIPARFSGSGSGTEFTLTISSLQSEDFAVYYCQQYQSWPPLTFGGGTKVEIKRTVAAPSVFIFPPSDEQLKSGTASVVCLLNNFYPREAKVQWKVDNALQSGNSQESVTEQDSKDSTYSLSSTLTLSKADYEKHKVYACEVTHQGLSSPVTKSFNRGEC
heavy: QVQLVESGGGVVQPGRSLRLSCAASGFTFRSFGMHWVRQAPGKGLEWVAVISYDASNEYYADSVKGRFIISRDNSKDTLYLQMNSLRAGDTAVYYCAKGGGLRWYFAYWGQGTLVTVSSASTKGPSVFPLAPSSKSTSGGTAALGCLVKDYFPEPVTVSWNSGALTSGVHTFPAVLQSSGLYSLSSVVTVPSSSLGTQTYICNVNHKPSNTKVDKKVEPKSCEVQLLESGGGLVQPGGSLRLSCAASGFTFSSYAMSWVRQAPGKGLEWVSAISGRGGSTFYADSVRGRFTISRDNSKNTLYLQMNSLRAEDTAMYYCVDGTTGTTDVDYWGQGTLVTVSS[letters of human IgG1 Fc with changes not shown]
B3: PR004276 (bispecific antibody)
light: EIVMTQSPATLSVSPGERATLSCRASQSISSNLGWYQQKPGQAPRLLIYGASTRATGIPARFSGSGSGTEFTLTISSLQSEDFAVYYCQQYQSWPPLTFGGGTKVEIKRTVAAPSVFIFPPSDEQLKSGTASVVCLLNNFYPREAKVQWKVDNALQSGNSQESVTEQDSKDSTYSLSSTLTLSKADYEKHKVYACEVTHQGLSSPVTKSFNRGEC
heavy: QVQLVESGGGVVQPGRSLRLSCAASGFTFRSFGMHWVRQAPGKGLEWVAVISYDASNEYYADSVKGRFIISRDNSKDTLYLQMNSLRAGDTAVYYCAKGGGLRWYFAYWGQGTLVTVSSASTKGPSVFPLAPSSKSTSGGTAALGCLVKDYFPEPVTVSWNSGALTSGVHTFPAVLQSSGLYSLSSVVTVPSSSLGTQTYICNVNHKPSNTKVDKKV[letters of human IgG1 Fc with changes not shown]EPKSSDKTHTPPPPPRTEVQLLESGGGLVQPGGSLRLSCAASGFTFSSYAMSWVRQAPGKGLEWVSAISGRGGSTFYADSVRGRFTISRDNSKNTLYLQMNSLRAEDTAMYYCVDGTTGTTDVDYWGQGTLVTVSS
B4: PR005650 (bispecific antibody)
chain 1: QVQLVESGGGVVQPGRSLRLSCAASGFTFRSFGMHWVRQAPGKGLEWVAVISYDASNEYYADSVKGRFIISRDNSKDTLYLQMNSLRAGDTAVYYCAKGGGLRWYFAYWGQGTLVTVSSASTKGPSVFPLAPSSKSTSGGTAALGCLVKDYFPEPVTVSWNSGALTSGVHTFPAVLQSSGLYSLSSVVTVPSSSLGTQTYICNVNHKPSNTKVDKKVEPKSC
chain 2: EIVMTQSPATLSVSPGERATLSCRASQSISSNLGWYQQKPGQAPRLLIYGASTRATGIPARFSGSGSGTEFTLTISSLQSEDFAVYYCQQYQSWPPLTFGGGTKVEIKRTVAAPSVFIFPPSDEQLKSGTASVVCLLNNFYPREAKVQWKVDNALQSGNSQESVTEQDSKDSTYSLSSTLTLSKADYEKHKVYACEVTHQGLSSPVTKSFNRGECEVQLVESGGGVVQPGGSLRLSCAASGFTFSNYAMTWVRQAPEKGLEWVSSISGSGVSTYYADSVKGRFTISRDNSKNTLYLQMTRLTAEDTAVYFCAKEGSSETDDHYYNVDVWGQGTTVTVSS[letters of human IgG1 Fc with changes not shown]EVQLVESGGGVVQPGGSLRLSCAASGFTFSNYAMTWVRQAPEKGLEWVSSISGSGVSTYYADSVKGRFTISRDNSKNTLYLQMTRLTAEDTAVYFCAKEGSSETDDHYYNVDVWGQGTTVTVSS
B5: PR004279 (bispecific antibody)
chain 1: QVQLVESGGGVVQPGRSLRLSCAASGFTFRSFGMHWVRQAPGKGLEWVAVISYDASNEYYADSVKGRFIISRDNSKDTLYLQMNSLRAGDTAVYYCAKGGGLRWYFAYWGQGTLVTVSSASTKGPSVFPLAPSSKSTSGGTAALGCLVKDYFPEPVTVSWNSGALTSGVHTFPAVLQSSGLYSLSSVVTVPSSSLGTQTYICNVNHKPSNTKVDKKVEPKSC
chain 2: EIVMTQSPATLSVSPGERATLSCRASQSISSNLGWYQQKPGQAPRLLIYGASTRATGIPARFSGSGSGTEFTLTISSLQSEDFAVYYCQQYQSWPPLTFGGGTKVEIKRTVAAPSVFIFPPSDEQLKSGTASVVCLLNNFYPREAKVQWKVDNALQSGNSQESVTEQDSKDSTYSLSSTLTLSKADYEKHKVYACEVTHQGLSSPVTKSFNRGECEPKSSDKTHTPPPPPEVQLVESGGGVVQPGGSLRLSCAASGFTFSNYAMTWVRQAPEKGLEWVSSISGSGVSTYYADSVKGRFTISRDNSKNTLYLQMTRLTAEDTAVYFCAKEGSSETDDHYYNVDVWGQGTTVTVSS[letters of human IgG1 Fc with changes not shown]
B6: PR004278 (bispecific antibody)
light: EIVMTQSPATLSVSPGERATLSCRASQSISSNLGWYQQKPGQAPRLLIYGASTRATGIPARFSGSGSGTEFTLTISSLQSEDFAVYYCQQYQSWPPLTFGGGTKVEIKRTVAAPSVFIFPPSDEQLKSGTASVVCLLNNFYPREAKVQWKVDNALQSGNSQESVTEQDSKDSTYSLSSTLTLSKADYEKHKVYACEVTHQGLSSPVTKSFNRGEC
heavy: EVQLVESGGGVVQPGGSLRLSCAASGFTFSNYAMTWVRQAPEKGLEWVSSISGSGVSTYYADSVKGRFTISRDNSKNTLYLQMTRLTAEDTAVYFCAKEGSSETDDHYYNVDVWGQGTTVTVSSGGGGSGGGGSGGGGSQVQLVESGGGVVQPGRSLRLSCAASGFTFRSFGMHWVRQAPGKGLEWVAVISYDASNEYYADSVKGRFIISRDNSKDTLYLQMNSLRAGDTAVYYCAKGGGLRWYFAYWGQGTLVTVSSASTKGPSVFPLAPSSKSTSGGTAALGCLVKDYFPEPVTVSWNSGALTSGVHTFPAVLQSSGLYSLSSVVTVPSSSLGTQTYICNVNHKPSNTKVDKKV[letters of human IgG1 Fc with changes not shown]

Target: T1, human OX40
Experiment: FACS
With B1 the EC50 was 11.3 nM. Work on B2 yielded an EC50 of 13.2 nM. B3 gave an EC50 of 2.8 nM.

What follows are binders tested against human 4-1BB (human, UniProt Q07011 24-255) (assay: FACS).
Sequence of UniProt Q07011 (Q07011 24-255): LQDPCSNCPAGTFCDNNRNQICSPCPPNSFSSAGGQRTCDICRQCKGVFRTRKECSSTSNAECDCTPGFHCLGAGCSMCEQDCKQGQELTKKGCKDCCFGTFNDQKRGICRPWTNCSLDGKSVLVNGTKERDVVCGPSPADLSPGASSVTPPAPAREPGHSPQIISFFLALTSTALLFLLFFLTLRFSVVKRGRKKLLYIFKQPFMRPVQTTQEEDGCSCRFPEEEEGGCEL
B4 gave an EC50 of 0.531 nM. In the case of B5, the EC50 is reported as 0.503 nM. B6 was tested, and the EC50 was 0.477 nM.
